In paper PMC4336329 (PLoS ONE, 2015):
Hit rate of the full screen: of about 310,000 compounds, about 2,200 (0.71%) showed an effect of 50% or more. The effect is printed as a negative number. Some of the results follow.

These molecules were tested against human ether-à-go-go-related gene (hERG) potassium channel (human, UniProt Q12809) (assay: primary screen, population patch clamp on CHO cells stably expressing hERG).
Sequence of human ether-à-go-go-related gene (hERG) potassium channel (Q12809 whole entry, looked up): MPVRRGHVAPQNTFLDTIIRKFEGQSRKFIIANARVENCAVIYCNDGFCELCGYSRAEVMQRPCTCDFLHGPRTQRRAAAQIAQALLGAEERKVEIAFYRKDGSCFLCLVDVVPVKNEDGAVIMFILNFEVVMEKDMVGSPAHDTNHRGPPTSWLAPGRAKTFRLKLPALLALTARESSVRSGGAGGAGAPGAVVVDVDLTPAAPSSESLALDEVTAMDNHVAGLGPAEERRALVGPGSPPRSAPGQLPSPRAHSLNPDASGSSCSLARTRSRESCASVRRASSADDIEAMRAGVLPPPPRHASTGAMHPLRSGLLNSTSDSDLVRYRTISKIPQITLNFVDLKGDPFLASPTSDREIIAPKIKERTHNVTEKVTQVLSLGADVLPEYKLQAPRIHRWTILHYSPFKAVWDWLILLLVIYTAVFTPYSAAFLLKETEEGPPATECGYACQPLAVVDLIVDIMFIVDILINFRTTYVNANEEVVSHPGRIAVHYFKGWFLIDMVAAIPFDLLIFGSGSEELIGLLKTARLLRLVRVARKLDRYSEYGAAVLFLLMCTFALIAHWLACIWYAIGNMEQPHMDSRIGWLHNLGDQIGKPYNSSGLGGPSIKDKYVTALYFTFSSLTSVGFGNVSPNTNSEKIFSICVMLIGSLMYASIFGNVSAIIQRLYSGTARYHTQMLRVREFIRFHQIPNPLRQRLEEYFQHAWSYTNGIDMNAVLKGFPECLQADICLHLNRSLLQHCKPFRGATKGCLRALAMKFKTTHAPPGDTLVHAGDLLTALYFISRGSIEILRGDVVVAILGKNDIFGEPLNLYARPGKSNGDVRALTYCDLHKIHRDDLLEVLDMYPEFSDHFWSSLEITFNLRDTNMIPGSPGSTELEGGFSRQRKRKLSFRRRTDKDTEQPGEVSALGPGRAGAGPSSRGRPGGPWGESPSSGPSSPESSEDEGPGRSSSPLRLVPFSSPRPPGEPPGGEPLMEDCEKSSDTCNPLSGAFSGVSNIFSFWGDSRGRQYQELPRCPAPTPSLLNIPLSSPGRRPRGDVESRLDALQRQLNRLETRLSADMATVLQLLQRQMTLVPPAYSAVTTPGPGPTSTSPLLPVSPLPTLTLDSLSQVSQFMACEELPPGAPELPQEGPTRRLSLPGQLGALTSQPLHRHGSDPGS

Compound	hERG current change (%, negative = inhibition) at 1uM
O=C(CNC(=S)N(CCCN1CCOCC1)Cc1cccs1)NC1CCCC1	2.77%
C[C@@H](C(=O)NC1CCCCC1)N1C(=O)N2CCc3c([nH]c4ccccc34)[C@@]2(C)C1=O	6.3%
CC1=NN(c2ccc(Cl)c(C(=O)O)c2)C(=O)C1	2.42%
Cc1ccc(S(=O)(=O)N2CCN(C(=O)c3ccc4nc[nH]c4c3)CC2)cc1	1.68%
Cc1ccc(C(=O)NCC(=O)OCC(=O)c2cc(C)n(Cc3ccco3)c2C)cc1	11.7%
CC1COc2ccccc2N1C(=O)c1ccc(Cl)cc1 (stereo not shown)	14.5%
O=c1c2ccccc2nc(SCc2nc3ccccc3s2)n1CCCO	11.9%
Cc1ccc(S(=O)(=O)N(C)c2ccccc2)cc1	0.592%
C/C(Cl)=C/Cn1c(SCCN2CCOCC2)nc2c1c(=O)[nH]c(=O)n2C	-22.9%
O=C(CSc1ncc(C(F)(F)F)cc1Cl)N1CCN(S(=O)(=O)c2ccccc2)CC1	-2.49%
CCn1c(CNC(=O)c2cccnc2)cc2ccccc21	13.1%
CCc1ccc(-c2nc(CN3CCC(C(=O)N4CCN(c5ccccn5)CC4)CC3)c(C)o2)cc1	-21.8%
O=C1CCCCCCC1Sc1ccccc1[N+](=O)[O-] (stereo not shown)	3.82%
Cc1ccc(-n2c(SCC(N)=O)nc(O)cc2=O)cc1	5.34%
c1ccc(-c2nc3cc4ccccc4cc3[nH]2)nc1	14.5%
CC(=O)c1cccc(CN2CCCC(CCC(=O)NCc3ccccc3F)C2)c1 (stereo not shown)	-12.4%
N#CC1=C(S)N(c2ccccc2)C(c2ccco2)NC1=O (stereo not shown)	13.7%
O=C(CSc1nc2c(c(=O)n1-c1ccc(Br)cc1)SCC2)NCC1CCCO1 (stereo not shown)	-21.7%
O=C(COC(=O)c1ccccc1Br)Nc1ccc2[nH]c(=O)[nH]c2c1	3.66%
Cc1sc2ncnc(N3CCC(C(=O)Nc4ccc(C#N)c(Cl)c4)CC3)c2c1C	-1.88%
COCCn1cnc2c1c(=O)n(Cc1cc(C(C)=O)ccc1OC)c(=O)n2Cc1ccccc1	-0.766%
C=CCN(CC=C)CC(=O)Nc1ccc(S(N)(=O)=O)cc1	7.31%

Compound	hERG current change (%, negative = inhibition) at 1uM
COc1ccccc1-n1c(O)c(C=NC2CC2)c(=O)[nH]c1=O	-6.58%
Cc1nn(CCC(=O)NNC(=S)Nc2ccc([N+](=O)[O-])cc2)c(C)c1[N+](=O)[O-]	-18.1%
CN(C)/C=N/C(=S)Nc1ccc(Cl)c(Cl)c1	8.75%
COc1ccccc1CCNC(=O)C1CCC(=O)N(C2CCCCCC2)C1 (stereo not shown)	9.92%
CCOc1ccccc1OCC(=O)Oc1ccc(C)c(C)c1	10.8%
O=C1Cc2cc(S(=O)(=O)Nc3cccc([N+](=O)[O-])c3)cc3c2N1CCC3	14.3%
N#CCc1ccc(Oc2ncc(C(F)(F)F)cc2Cl)cc1	9.72%
CC(C)COC(=O)c1ccc(N2C(=O)c3ccccc3C2=O)cc1	12.4%
O=C(Nc1cnn(Cc2ccc(Cl)cc2)c1)c1ccc([N+](=O)[O-])cc1	0.172%
CC(C)C(=O)Nc1cccc(C(=O)N2CCCCC2C)c1 (stereo not shown)	4.83%
COCP(=O)(c1ccccc1)c1ccccc1	4.19%
COCCCNC(=O)c1ccc2c(=O)n(Cc3ccc4c(c3)OCO4)c(=S)[nH]c2c1	12.4%
O=C(OCCCN=C1NS(=O)(=O)c2ccccc21)c1cccs1	7.56%
CC1(C)CC(=O)C2=C(C1)NC(Nc1nc3ccccc3o1)=NC21CCCCC1	7.89%
COc1ccc(-c2nc3nc(C)cc(=O)n3[nH]2)cc1	15.7%
CCN(c1c(C)n(C)n(-c2ccccc2)c1=O)S(C)(=O)=O	20.7%
Cc1ccc(/C=C/C(=O)c2ccc(O)cc2)cc1	14.4%
CCN(CC)c1ccc(/C=C2\C(=O)N(c3nnc(C)c(=O)[nH]3)N=C2C)cc1	6.74%
COc1ccc(N2CCN(C(=O)c3ccc(OCc4c(C)noc4C)c(OC)c3)CC2)cc1	8.14%
CCn1c(=S)sc2c(=O)n(CC(=O)Nc3cc(OC)ccc3OC)c(C)nc21	13.7%
Cc1nn(CC(=O)N2CCN(c3ccccc3)CC2)c(=O)c2ccccc12	7.83%
Cc1cc(C)n(C(=O)/C(C#N)=C/N(C)C)n1	6.8%

Compound	hERG current change (%, negative = inhibition) at 1uM
CCCNC(=O)C1CCN(S(=O)(=O)c2cccc3nonc23)CC1	13.3%
CC1CCCCC1NC(=O)COC(=O)c1ccc(S(=O)(=O)N2CCOCC2)cc1 (stereo not shown)	11.2%
CCOc1ncccc1C(=O)OCc1csc(CC(=O)Nc2ccccc2C)n1	9.16%
COc1cc(C#Cc2c(-c3cncn3C)n(C)c3ccc(-c4ccc(OC)nc4)cc23)cc(OC)c1	11.4%
CCCC(=O)N/C(N)=N/c1nc(C)c2cc(C)ccc2n1	6.71%
Cc1cc(OCc2n[nH]c(=S)n2-c2ccccc2)ccc1Cl	20.7%
CCOC(=O)C1=C(C)N(CCCC(=O)O)C(=O)NC1c1ccc2ccccc2c1 (stereo not shown)	2.15%
Cc1ccc2c(Cn3ccnc3)cc(=O)oc2c1C	15.6%
Cc1ccc2c(c1)[C@H]1[C@H](CO2)[C@H](c2ccccc2)[C@]2(C)C(=O)Nc3cc(Cl)ccc3C(=O)N12	16%
Cc1csc(N2CCc3ccccc32)n1	-12.6%
COc1ccccc1N(C)S(=O)(=O)c1ccc(C(=O)OCC(=O)Nc2ccccc2F)cc1	15.8%
Cc1ccc(CNC(=O)CN(c2ccc(C)cc2)S(=O)(=O)c2c(C)nn(C)c2C)cc1	13.5%
COC(=O)c1cc(C(=O)c2ccc(Cl)cc2Cl)cn1C	-2.96%
O=C(NN1C(=O)c2ccccc2NC1c1ccccc1OCc1ccccc1)c1ccncc1 (stereo not shown)	18.1%
Cc1ccccc1CN1CCNC1=O	12.8%
Cc1nc(CSc2ccc(Br)cc2)cs1	18.3%
CCC(C(=O)NC1CC(C)(C)NC(C)(C)C1)c1ccccc1 (stereo not shown)	10.2%
CC1CCc2cc(F)cc3c(O)c(C(=O)NCCN(C)C)c(=O)n1c23.Cl (stereo not shown)	12.2%
Cc1nc2ccccc2n1CCc1nc2c3ccccc3nc(SCC(=O)NCc3ccco3)n2n1	-20.8%
NS(=O)(=O)c1ccc(NC(=S)NC2CCCCCC2)cc1	16.2%
O=C(CN1C(=O)NC2(CCCC2)C1=O)N1CCN(S(=O)(=O)c2cc(Cl)ccc2Cl)CC1	-1.72%
COc1ccc(CCN(C)C(=O)c2ccc(S(=O)(=O)Nc3ccccc3C)cc2)cc1OC	10.8%

Compound	hERG current change (%, negative = inhibition) at 1uM
Cn1c(CC(=O)Nc2ccc(F)cc2)nnc1SCC(=O)Nc1nncs1	15%
C=CCn1c(NC(=O)c2ccccc2Cl)c(C#N)c2nc3ccccc3nc21	-9.9%
CC(C)=NNC(=O)c1c(O)c2ccccc2[nH]c1=O	-2.13%
Cc1cc(OCC(=O)OCC(=O)N2CCc3ccccc32)ccc1Cl	11.4%
O=C(NC(=S)Nc1ccc2nc[nH]c2c1)c1ccccc1	15%
CC(=O)c1ccc(N2CCN(C(=O)CN3C(=O)NC4(CCCCC4)C3=O)CC2)c(F)c1	5.01%
CCn1c2ccccc2c2cc(NC(=O)C(C)Oc3ccccc3)ccc21 (stereo not shown)	-0.0677%
CCn1nc(C)c(NC(=O)CCSc2nc(-c3ccco3)cc(C(F)(F)F)n2)c1C	-0.91%
COc1ccc(CCNc2nc(-c3ccc(F)cc3)c(CC(=O)O)s2)cc1OC	7.55%
O=C(NCCCN1CCCC1=O)Nc1ccccc1Cl	17.8%
Cc1ccc(C2C3=C(CC(C)(C)CC3=O)N=C3c4ccccc4C(=O)C32)cc1 (stereo not shown)	7.98%
CCOC(=O)c1nncc(-c2ccccc2)n1	10.9%
COc1ccc2[nH]c3c(=O)n(/N=C/c4ccc(OC)c(CN5CCCC5)c4)c(C)nc3c2c1	-5.58%
COc1ccc(-c2nnn(CC(=O)OC3CCCCC3)n2)cc1OC	21.3%
CSc1cccc(NC(=S)N2CCCN(Cc3ccccc3F)C2)c1	3.93%
CN1c2ccccc2C(C)(C)C12CC(c1ccc(S(=O)(=O)N3CCCCC3)cc1)=NO2 (stereo not shown)	8.16%
COc1ccc(NCc2n[nH]c(=O)c3ccccc23)cc1	9.74%
CN(C)c1ccc(C2C3C=CC(C3)C2(C#N)C(=O)O)c(Br)c1 (stereo not shown)	14.7%
CCC(C)Sc1nc2c(c(=O)n1C)SC(C)C2 (stereo not shown)	6.38%
CCN(CC)S(=O)(=O)c1ccc(C(=O)NN(C)C2=NS(=O)(=O)c3ccccc32)cc1	14.5%
CCOc1ccc(S(=O)(=O)NCCCn2ccnc2)cc1	9.49%
CC(C)(C)OC(=O)N1CCC(NC(=O)c2[nH]cnc2C(=O)Nc2ccccc2)CC1	10.5%
